From publication PMC9911399, “Two distinct binding modes provide the RNA-binding protein RbFox with extraordinary sequence specificity”
Positions count from the first letter of the chain named. Some of the results follow.

T1: RBFOX1 RRM RbFoxmut (Fox-RRM*) (Homo sapiens, UniProt Q9NWB1 109-208, R118D;E147R;N151S;E152T)
T1 sequence: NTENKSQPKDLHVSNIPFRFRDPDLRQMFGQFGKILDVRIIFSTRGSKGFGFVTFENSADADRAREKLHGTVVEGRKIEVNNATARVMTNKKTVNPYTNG

B1: GUAAGGA (DNA:RNA)
RNA: GGGAGACCGGAAUUCAGAUUGUCCGUAAGGAUUAAAUCCCGUCGUAGCCACCA
DNA 1: CAATCTGAATTCCGGTCTCCC
DNA 2: TGGTGGCTACGACGGGATT
B2: UGAGUCC (DNA:RNA)
RNA: B1 RNA with G25U, U26G, A28G, G29U, G30C, A31C
DNA 1: CAATCTGAATTCCGGTCTCCC
DNA 2: TGGTGGCTACGACGGGATT
B3: AUGCGCG (DNA:RNA)
RNA: B1 RNA with G25A, A27G, A28C, G30C, A31G
DNA 1: CAATCTGAATTCCGGTCTCCC
DNA 2: TGGTGGCTACGACGGGATT
B4: UUAGACU (DNA:RNA)
RNA: B1 RNA with G25U, A28G, G29A, G30C, A31U
DNA 1: CAATCTGAATTCCGGTCTCCC
DNA 2: TGGTGGCTACGACGGGATT
B5: GACCAUU (DNA:RNA)
RNA: B1 RNA with U26A, A27C, A28C, G29A, G30U, A31U
DNA 1: CAATCTGAATTCCGGTCTCCC
DNA 2: TGGTGGCTACGACGGGATT
B6: UGACUGC (DNA:RNA)
RNA: B1 RNA with G25U, U26G, A28C, G29U, A31C
DNA 1: CAATCTGAATTCCGGTCTCCC
DNA 2: TGGTGGCTACGACGGGATT
B7: CCUGCCC (DNA:RNA)
RNA: GGGAGACCGGAAUUCAGAUUGUCCCCUGCCCUUAAAUCCCGUCGUAGCCACCA
DNA 1: CAATCTGAATTCCGGTCTCCC
DNA 2: TGGTGGCTACGACGGGATT
B8: UAUCAUA (DNA:RNA)
RNA: B7 RNA with C25U, C26A, G28C, C29A, C30U, C31A
DNA 1: CAATCTGAATTCCGGTCTCCC
DNA 2: TGGTGGCTACGACGGGATT
B9: CCUGGAG (DNA:RNA)
RNA: B7 RNA with C29G, C30A, C31G
DNA 1: CAATCTGAATTCCGGTCTCCC
DNA 2: TGGTGGCTACGACGGGATT
B10: GCGUCAA (DNA:RNA)
RNA: B7 RNA with C25G, U27G, G28U, C30A, C31A
DNA 1: CAATCTGAATTCCGGTCTCCC
DNA 2: TGGTGGCTACGACGGGATT
B11: AGAGGAU (DNA:RNA)
RNA: B1 RNA with G25A, U26G, A28G, G30A, A31U
DNA 1: CAATCTGAATTCCGGTCTCCC
DNA 2: TGGTGGCTACGACGGGATT
B12: AAGGUAU (DNA:RNA)
RNA: B7 RNA with C25A, C26A, U27G, C29U, C30A, C31U
DNA 1: CAATCTGAATTCCGGTCTCCC
DNA 2: TGGTGGCTACGACGGGATT
B13: GAAUUAA (DNA:RNA)
RNA: B1 RNA with U26A, A28U, G29U, G30A
DNA 1: CAATCTGAATTCCGGTCTCCC
DNA 2: TGGTGGCTACGACGGGATT
B14: GGUAGAC (DNA:RNA)
RNA: B1 RNA with U26G, A27U, G30A, A31C
DNA 1: CAATCTGAATTCCGGTCTCCC
DNA 2: TGGTGGCTACGACGGGATT
B15: UGUAGAC (DNA:RNA)
RNA: B7 RNA with C25U, C26G, G28A, C29G, C30A
DNA 1: CAATCTGAATTCCGGTCTCCC
DNA 2: TGGTGGCTACGACGGGATT
B16: ACCAGGG (DNA:RNA)
RNA: B1 RNA with G25A, U26C, A27C, A31G
DNA 1: CAATCTGAATTCCGGTCTCCC
DNA 2: TGGTGGCTACGACGGGATT
B17: AUCAACG (DNA:RNA)
RNA: B1 RNA with G25A, A27C, G29A, G30C, A31G
DNA 1: CAATCTGAATTCCGGTCTCCC
DNA 2: TGGTGGCTACGACGGGATT
B18: UCUAGCG (DNA:RNA)
RNA: B7 RNA with C25U, G28A, C29G, C31G
DNA 1: CAATCTGAATTCCGGTCTCCC
DNA 2: TGGTGGCTACGACGGGATT
B19: AGUCCGU (DNA:RNA)
RNA: B7 RNA with C25A, C26G, G28C, C30G, C31U
DNA 1: CAATCTGAATTCCGGTCTCCC
DNA 2: TGGTGGCTACGACGGGATT
B20: UAUGAAA (DNA:RNA)
RNA: B7 RNA with C25U, C26A, C29A, C30A, C31A
DNA 1: CAATCTGAATTCCGGTCTCCC
DNA 2: TGGTGGCTACGACGGGATT
B21: GACGCCU (DNA:RNA)
RNA: B7 RNA with C25G, C26A, U27C, C31U
DNA 1: CAATCTGAATTCCGGTCTCCC
DNA 2: TGGTGGCTACGACGGGATT
B22: UUACAUU (DNA:RNA)
RNA: B1 RNA with G25U, A28C, G29A, G30U, A31U
DNA 1: CAATCTGAATTCCGGTCTCCC
DNA 2: TGGTGGCTACGACGGGATT
B23: UAUGAGA (DNA:RNA)
RNA: B7 RNA with C25U, C26A, C29A, C30G, C31A
DNA 1: CAATCTGAATTCCGGTCTCCC
DNA 2: TGGTGGCTACGACGGGATT
B24: UGCACGA (DNA:RNA)
RNA: B1 RNA with G25U, U26G, A27C, G29C
DNA 1: CAATCTGAATTCCGGTCTCCC
DNA 2: TGGTGGCTACGACGGGATT
B25: UCCUAGU (DNA:RNA)
RNA: B7 RNA with C25U, U27C, G28U, C29A, C30G, C31U
DNA 1: CAATCTGAATTCCGGTCTCCC
DNA 2: TGGTGGCTACGACGGGATT
B26: GUUGCUG (DNA:RNA)
RNA: B7 RNA with C25G, C26U, C30U, C31G
DNA 1: CAATCTGAATTCCGGTCTCCC
DNA 2: TGGTGGCTACGACGGGATT
B27: ACAAUAA (DNA:RNA)
RNA: B1 RNA with G25A, U26C, G29U, G30A
DNA 1: CAATCTGAATTCCGGTCTCCC
DNA 2: TGGTGGCTACGACGGGATT
B28: AUCAAAU (DNA:RNA)
RNA: B1 RNA with G25A, A27C, G29A, G30A, A31U
DNA 1: CAATCTGAATTCCGGTCTCCC
DNA 2: TGGTGGCTACGACGGGATT
B29: UGAGAAU (DNA:RNA)
RNA: B7 RNA with C25U, C26G, U27A, C29A, C30A, C31U
DNA 1: CAATCTGAATTCCGGTCTCCC
DNA 2: TGGTGGCTACGACGGGATT
B30: GUGCGCA (DNA:RNA)
RNA: B1 RNA with A27G, A28C, G30C
DNA 1: CAATCTGAATTCCGGTCTCCC
DNA 2: TGGTGGCTACGACGGGATT
B31: ACUUUCC (DNA:RNA)
RNA: B7 RNA with C25A, G28U, C29U
DNA 1: CAATCTGAATTCCGGTCTCCC
DNA 2: TGGTGGCTACGACGGGATT

Molecular target: T1, RBFOX1 RRM RbFoxmut (Fox-RRM*)
Experiment: EMSA; HiTS-Eq, 1 nM pool, 10 min; buffer printed only for the single-RNA assays: 10 mM Tris pH 7.5, 150 mM NaCl, 3.4 mM EDTA, 0.001% NP-40, 30 C
Details: tags: His6 N-terminal (pET28a); label: 5' 32P
Summary of the method: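 Purified RbFox RRM (wild type or mutant) was equilibrated for 10 min in 50 µL with 1 nM of a 5′-radiolabelled pool of RNA with 7 randomized nucleotides, its flanks annealed to DNA oligonucleotides, across increasing protein concentrations. Free RNA was separated by 8% native PAGE, excised, reverse-transcribed, PCR-barcoded and sequenced on an Illumina HiSeq 2500. Relative association constants came from read-count changes of each variant against the control reaction, normalised to the cognate motif.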

Row | Binder | binding signal
1 | B1 | 0.0372 KA relative to UGCAUGU
2 | B2 | 0.0735 KA relative to UGCAUGU
3 | B3 | 0.198 KA relative to UGCAUGU
4 | B4 | 0.0743 KA relative to UGCAUGU
5 | B5 | 0.0767 KA relative to UGCAUGU
6 | B6 | 0.169 KA relative to UGCAUGU
7 | B7 | 0.095 KA relative to UGCAUGU
8 | B8 | 0.0784 KA relative to UGCAUGU
9 | B9 | 0.113 KA relative to UGCAUGU
10 | B10 | 0.0825 KA relative to UGCAUGU
11 | B11 | 0.0959 KA relative to UGCAUGU
12 | B12 | 0.116 KA relative to UGCAUGU
13 | B13 | 0.122 KA relative to UGCAUGU
14 | B14 | 0.0783 KA relative to UGCAUGU
15 | B15 | 0.123 KA relative to UGCAUGU
16 | B16 | 0.0771 KA relative to UGCAUGU

Row | Binder | binding signal
17 | B17 | 0.119 KA relative to UGCAUGU
18 | B18 | 0.148 KA relative to UGCAUGU
19 | B19 | 0.113 KA relative to UGCAUGU
20 | B20 | 0.0566 KA relative to UGCAUGU
21 | B21 | 0.078 KA relative to UGCAUGU
22 | B22 | 0.0627 KA relative to UGCAUGU
23 | B23 | 0.094 KA relative to UGCAUGU
24 | B24 | 0.368 KA relative to UGCAUGU
25 | B25 | 0.117 KA relative to UGCAUGU
26 | B26 | 0.138 KA relative to UGCAUGU
27 | B27 | 0.105 KA relative to UGCAUGU
28 | B28 | 0.0871 KA relative to UGCAUGU
29 | B29 | 0.092 KA relative to UGCAUGU
30 | B30 | 0.166 KA relative to UGCAUGU
31 | B31 | 0.0562 KA relative to UGCAUGU
